Laboratory results taken from the supplement of paper PMC11876631.
Positions count from the first letter of the chain named. Names and notes keep the numbering of the source. ± gives the standard deviation of the averaged measurements. Laboratory Escherichia coli strains with one amino-acid change in an essential protein, pooled on minimal glucose agar with carbenicillin or gentamicin at twice the control MIC (plus kanamycin and chloramphenicol for the plasmids), 48 h. Fold change of barcode share against drug-free plates; higher = less susceptible. Active = above 20 in both replicates (the paper's putatively resistant). '<' = one read or none on drug, '>' = one read or none on a drug-free plate. Shares are relative, so most strains fall below 1 when a few take over. Listed are strains with at least 15 reads on both drug-free plates, and hits; most hits rest on fewer reference reads. Replicate rank correlation about 0.5. Edits are read from barcodes.

Biological target: Escherichia coli (laboratory strain)
Assay: barcode share on antibiotic plates over drug-free plates; higher = less susceptible
Procedure: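 A pool of E. coli strains, each edited to carry one amino-acid change in an essential protein, was grown for 48 h on minimal glucose agar with or without antibiotic; strain barcodes were sequenced; mean of two replicates.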

[1] = antibiotic: carbenicillin, 2× MIC (3.1 µg/mL)
[2] = antibiotic: gentamicin, 2× MIC (MIC 0.45 µg/mL)

B1: plsC I23W (protein)
chain: MLYIFRLIITVIYSILVCVFGSWYCLFSPRNPKHVATFGHMFGRLAPLFGLKVECRKPTDAESYGNAIYIANHQNNYDMVTASNIVQPPTVTVGKKSLLWIPFFGQLYWLTGNLLIDRNNRTKAHGTIAEVVNHFKKRRISIWMFPEGTRSRGRGLLPFKTGAFHAAIAAGVPIIPVCVSTTSNKINLNRLHNGLVIVEMLPPIDVSQYGKDQVRELAAHCRSIMEQKIAELDKEVAEREAAGKV
fold change of barcode share [1]: 0.334 ± 0.093 | fold change of barcode share [2]: 0.00732 ± 0.0047

B2: plsC I23Q (protein)
chain: B1 chain with W23Q
fold change of barcode share [1]: 0.304 ± 0.049 | fold change of barcode share [2]: < 0.00669

B3: plsC F104A (protein)
chain: B1 chain with W23I, F104A
fold change of barcode share [1]: 0.309 ± 0.11 | fold change of barcode share [2]: 0.00743 ± 0.0023

B4: plsC F104W (protein)
chain: B1 chain with W23I, F104W
fold change of barcode share [1]: 0.306 ± 0.042 | fold change of barcode share [2]: 0.00602 ± 0.0037

B5: plsC F104Q (protein)
chain: B1 chain with W23I, F104Q
fold change of barcode share [1]: 140 [active]

B6: plsC I142A (protein)
chain: B1 chain with W23I, I142A
fold change of barcode share [1]: 0.377 ± 0.086 | fold change of barcode share [2]: < 0.00867

B7: plsC I142W (protein)
chain: B1 chain with W23I, I142W
fold change of barcode share [1]: 0.289 ± 0.12 | fold change of barcode share [2]: < 0.0101

B8: plsC I142Q (protein)
chain: B1 chain with W23I, I142Q
fold change of barcode share [1]: 194 [active]

B9: plsC F145A (protein)
chain: B1 chain with W23I, F145A
fold change of barcode share [1]: 0.314 ± 0.0051 | fold change of barcode share [2]: 0.00516 ± 0.0041

B10: plsC F145Q (protein)
chain: B1 chain with W23I, F145Q
fold change of barcode share [1]: 3.22 ± 2.5 | fold change of barcode share [2]: 0.0121 ± 0.011

B11: plsC F145D (protein)
chain: B1 chain with W23I, F145D
fold change of barcode share [1]: 196 [active]

B12: ppc V134A (protein)
chain: MNEQYSALRSNVSMLGKVLGETIKDALGEHILERVETIRKLSKSSRAGNDANRQELLTTLQNLSNDELLPVARAFSQFLNLANTAEQYHSISPKGEAASNPEVIARTLRKLKNQPELSEDTIKKAVESLSLELALTAHPTEITRRTLIHKMVEVNACLKQLDNKDIADYEHNQLMRRLRQLIAQSWHTDEIRKLRPSPVDEAKWGFAVVENSLWQGVPNYLRELNEQLEENLGYKLPVEFVPVRFTSWMGGDRDGNPNVTADITRHVLLLSRWKATDLFLKDIQVLVSELSMVEATPELLALVGEEGAAEPYRYLMKNLRSRLMATQAWLEARLKGEELPKPEGLLTQNEELWEPLYACYQSLQACGMGIIANGDLLDTLRRVKCFGVPLVRIDIRQESTRHTEALGELTRYLGIGDYESWSEADKQAFLIRELNSKRPLLPRNWQPSAETREVLDTCQVIAEAPQGSIAAYVISMAKTPSDVLAVHLLLKEAGIGFAMPVAPLFETLDDLNNANDVMTQLLNIDWYRGLIQGKQMVMIGYSDSAKDAGVMAASWAQYQAQDALIKTCEKAGIELTLFHGRGGSIGRGGAPAHAALLSQPPGSLKGGLRVTEQGEMIRFKYGLPEITVSSLSLYTGAILEANLLPPPEPKESWRRIMDELSVISCDVYRGYVRENKDFVPYFRSATPEQELGKLPLGSRPAKRRPTGGVESLRAIPWIFAWTQNRLMLPAWLGAGTALQKVVEDGKQSELEAMCRDWPFFSTRLGMLEMVFAKADLWLAEYYDQRLVDKALWPLGKELRNLQEEDIKVVLAIANDSHLMADLPWIAESIQLRNIYTDPLNVLQAELLHRSRQAEKEGQEPDPRVEQALMVTIAGIAAGMRNTG
fold change of barcode share [1]: 0.548 ± 0.17 | fold change of barcode share [2]: < 0.00487

B13: ppc V134Q (protein)
chain: B12 chain with A134Q
fold change of barcode share [1]: > 28.5 [active]

B14: ppc L178A (protein)
chain: B12 chain with A134V, L178A
fold change of barcode share [1]: 1.24 ± 1.1 | fold change of barcode share [2]: < 0.00801
